Source: the supplement of paper PMC10126150
Sequences with one replicate were seen in a single cluster, so their values are uncertain.

Test system: ATP
Test: switch fluorescence ratio, 500 uM ATP over buffer (Cy3 cluster intensity, sum of 5 cycles each) (fold (ratio)); higher = stronger signal-on switching upon ATP binding; sequences stand for … in TCGTCGGCAGCGTCAGATGTGTATAAGAGACAGTTTTTTTTTTTTTTTTTTTTTTTTT…TC
Details: aptamer strand: ATP DNA aptamer (quencher-CACCTGGGGGAGTATTGCGGAGGAAGG + anchor), 100 nM annealed; ATP concentration: 500 uM; one replicate
In short: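 Exposure to 500 uM ATP lasted 15 min at 22 °C before imaging, and a selection-buffer image was taken beforehand, for Cy3-labelled switching-strand clusters on a modified Illumina MiSeq flow-cell annealed to 100 nM quencher-labelled ATP aptamer. Five buffer/ATP cycles were run with NaOH stripping and re-annealing between them. The fluorescence ratio per cluster is summed target-cycle over summed buffer-cycle Cy3 intensity, averaged per switch-domain sequence. Clusters outside 100-1000 RFU were excluded.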

## TTCATGGGGG
  switch fluorescence ratio: 0.951

## AATGAAGTAA
  switch fluorescence ratio: 1.16

## TAATGTGGA
  switch fluorescence ratio: 1.02

## CCTGCTAGGA
  switch fluorescence ratio: 1.43

## TACGCGAACC
  switch fluorescence ratio: 1.27

## GCTAAATTGG
  switch fluorescence ratio: 0.989

## ATGGGTGTC
  switch fluorescence ratio: 1.02

## CTTTGTTTAC
  switch fluorescence ratio: 1.06

## TGCCAAACAG
  switch fluorescence ratio: 1.01

## TAAGTGTA
  switch fluorescence ratio: 0.968

## TCGGGGCCCC
  switch fluorescence ratio: 1.6

## AGAGGACTGC
  switch fluorescence ratio: 1.03

## GCGTGTACCA
  switch fluorescence ratio: 1.08

## AGTTTGCCGG
  switch fluorescence ratio: 1.05

## CGGACTGGCA
  switch fluorescence ratio: 1.03

## GCCACTATAG
  switch fluorescence ratio: 1.01

## AATCTAGATG
  switch fluorescence ratio: 1.05

## TCCCTAGGGT
  switch fluorescence ratio: 1.06

## GGCCTCTGGC
  switch fluorescence ratio: 1.09

## CAAAGTAACA
  switch fluorescence ratio: 1.02

## ACGAACCTGG
  switch fluorescence ratio: 1.34

## GCTGGCTGGA
  switch fluorescence ratio: 0.999

## CGATGATGG
  switch fluorescence ratio: 1.01

## TACTCAGGGT
  switch fluorescence ratio: 1.19

## ATGAGTGGGT
  switch fluorescence ratio: 1.01

## GGAAAAGGGG
  switch fluorescence ratio: 1.13

## TTGGCGATAG
  switch fluorescence ratio: 1.02

## GTCGAGAGCC
  switch fluorescence ratio: 0.995

## CGGAAACGGA
  switch fluorescence ratio: 1.03

## CTCTACCGTA
  switch fluorescence ratio: 1.01

## TATAGCGCGG
  switch fluorescence ratio: 1.01

## ACATTTTGAA
  switch fluorescence ratio: 0.991

## TACACGTGAA
  switch fluorescence ratio: 1.06

## TCAGGGTAT
  switch fluorescence ratio: 0.98

## TACGTGAGT
  switch fluorescence ratio: 0.976

## GGATACGTAA
  switch fluorescence ratio: 1.18

## ATCAGGTTCC
  switch fluorescence ratio: 1.14

## GAGCCAATTC
  switch fluorescence ratio: 1.71

## TGGATCTACT
  switch fluorescence ratio: 1.03

## CGTTGACGTG
  switch fluorescence ratio: 1.02

## TATTAGTTTA
  switch fluorescence ratio: 1.01

## TCTGTATTCA
  switch fluorescence ratio: 1

## AGATTCCTT
  switch fluorescence ratio: 1.06

## CGGAAGGGGT
  switch fluorescence ratio: 1.01

## CAGCGTGACT
  switch fluorescence ratio: 1.11

## TTCATTCAGG
  switch fluorescence ratio: 1.02

## GGGACACTTT
  switch fluorescence ratio: 0.962

## TAGTCAGTT
  switch fluorescence ratio: 0.991

## TCGGTCTTAT
  switch fluorescence ratio: 1.01

## CCATGAGTCG
  switch fluorescence ratio: 1.07

## TGAGAGCAAT
  switch fluorescence ratio: 4.05

## GCCTGGTGCG
  switch fluorescence ratio: 1.05

## TGCTCTGTTA
  switch fluorescence ratio: 1.04

## CCCTATCAAA
  switch fluorescence ratio: 1.04

## ACTTGGACTT
  switch fluorescence ratio: 1.08

## CCAGTTTCAC
  switch fluorescence ratio: 0.993

## AAACCCCGGC
  switch fluorescence ratio: 1.17

## CCCATCCCCA
  switch fluorescence ratio: 1.12

## CTTGCTTTGG
  switch fluorescence ratio: 0.973

## TCTTGCTGGA
  switch fluorescence ratio: 0.998

## AGGTATTCCA
  switch fluorescence ratio: 0.987

## TCTTCATCTA
  switch fluorescence ratio: 1.02

## TTCAGATATG
  switch fluorescence ratio: 0.982

## ACGAATTGCT
  switch fluorescence ratio: 0.991

## TCCCTGAACT
  switch fluorescence ratio: 1.01

## ACTTTCCTGT
  switch fluorescence ratio: 0.991

## AGTGTAGATC
  switch fluorescence ratio: 1.12

## TGATGTATAG
  switch fluorescence ratio: 1.04

## TGGATTCCCG
  switch fluorescence ratio: 1.02

## CAAGCAGCAT
  switch fluorescence ratio: 1.14

## ATCTGCAGCT
  switch fluorescence ratio: 1.11

## CAAGGTCGGA
  switch fluorescence ratio: 0.962

## TCGGATTAAA
  switch fluorescence ratio: 1.01

## AAAGCGGTTT
  switch fluorescence ratio: 1.01

## CTGCTTACTG
  switch fluorescence ratio: 1.15

## TACGTGGCAA
  switch fluorescence ratio: 1.03

## GCCAGCTTTG
  switch fluorescence ratio: 0.956

## TCCTATAGTA
  switch fluorescence ratio: 0.979

## GGTTGAGGCA
  switch fluorescence ratio: 1.02

## CGGAAGGTGG
  switch fluorescence ratio: 1.01

## TCTGTTAAGA
  switch fluorescence ratio: 1.03

## GTTTTTGCGC
  switch fluorescence ratio: 0.967

## TTAGTTACAT
  switch fluorescence ratio: 1.07

## AACTTCCCGC
  switch fluorescence ratio: 3.06

## CCAGGTACCC
  switch fluorescence ratio: 1.01

## TGGGTGTGCG
  switch fluorescence ratio: 1

## GTGGATAGCA
  switch fluorescence ratio: 0.973

## GATTTCCTCT
  switch fluorescence ratio: 1.1

## GGATTTTGG
  switch fluorescence ratio: 0.965

## GACTGGCGCG
  switch fluorescence ratio: 1

## ATAGGTCG
  switch fluorescence ratio: 1.01

## GCGTTGAATA
  switch fluorescence ratio: 0.97

## ACCTCGCCT
  switch fluorescence ratio: 1.09

## GTTTAGAAAT
  switch fluorescence ratio: 0.975

## TAATAAAGTG
  switch fluorescence ratio: 1

## ACCGCACTGA
  switch fluorescence ratio: 1.66

## TGAGAGATAC
  switch fluorescence ratio: 1.06

## CAAAGAGAAG
  switch fluorescence ratio: 0.986

## CATGAGTCAT
  switch fluorescence ratio: 0.948

## TACGAAAATA
  switch fluorescence ratio: 1.08

## ATAAGCTAA
  switch fluorescence ratio: 0.963

## TGCTTGTCGC
  switch fluorescence ratio: 1.05

## CTGTTTTTCC
  switch fluorescence ratio: 1.02

## GAAATCCTA
  switch fluorescence ratio: 1.05

## AATATTCTAA
  switch fluorescence ratio: 0.979

## GCTAAAAAGG
  switch fluorescence ratio: 0.947

## CCTGTGCCCT
  switch fluorescence ratio: 1.09

## ACCCTGGGAT
  switch fluorescence ratio: 1.03

## CGACCCAGCC
  switch fluorescence ratio: 1.25

## GCAAATCGCT
  switch fluorescence ratio: 1.02

## CGTCCTAGCG
  switch fluorescence ratio: 1.02

## TTAGTCACCC
  switch fluorescence ratio: 1.02

## CAAGTATTTG
  switch fluorescence ratio: 0.964

## AGTGCTCCCT
  switch fluorescence ratio: 1.1

## TTGGAACAAA
  switch fluorescence ratio: 0.996

## GAGGTTGCTA
  switch fluorescence ratio: 0.998

## CACATTTCCC
  switch fluorescence ratio: 1.03

## CCGTGGAGA
  switch fluorescence ratio: 1.04

## ACCGCTCGAG
  switch fluorescence ratio: 1.13

## GGTAAATAAC
  switch fluorescence ratio: 1.03

## CGGAGGAGAT
  switch fluorescence ratio: 1.04

## CGGAGGATTG
  switch fluorescence ratio: 0.987

## CGTTACAAAG
  switch fluorescence ratio: 1.03

## TTGATACGGG
  switch fluorescence ratio: 1.03

## GGGGCGCAAT
  switch fluorescence ratio: 2.45

## GCTCCATCTT
  switch fluorescence ratio: 1.06

## CGGGGTTGA
  switch fluorescence ratio: 1.04

## AAAGCTTAGC
  switch fluorescence ratio: 0.938

## GTGAGATGCC
  switch fluorescence ratio: 1.03

## AACCTAAGTC
  switch fluorescence ratio: 1.02

## ATTGAGTAGG
  switch fluorescence ratio: 1.02

## AAGTCCTGAG
  switch fluorescence ratio: 1.05

## AAATGATGTA
  switch fluorescence ratio: 0.957

## ATTGGACGTA
  switch fluorescence ratio: 1

## CCGAGCCG
  switch fluorescence ratio: 1.48

## CTATTTCATC
  switch fluorescence ratio: 0.956

## ACTCAAGTAG
  switch fluorescence ratio: 1.01

## TTATCCGGTA
  switch fluorescence ratio: 0.984

## TTAAGCCCAC
  switch fluorescence ratio: 1.16

## AAAGGACGCA
  switch fluorescence ratio: 1.26

## TCATTAATCT
  switch fluorescence ratio: 1.03

## AGTTATGGTG
  switch fluorescence ratio: 0.972

## AACCCGTTTT
  switch fluorescence ratio: 1.01

## GAAGGCCGCG
  switch fluorescence ratio: 1.02

## GATTGGCCGC
  switch fluorescence ratio: 1.13

## ACGTGGCTTT
  switch fluorescence ratio: 1

## GGTTGCATAG
  switch fluorescence ratio: 0.975

## AAGGCAAGGA
  switch fluorescence ratio: 1.06

## GGTTTTCTGC
  switch fluorescence ratio: 0.973

## TCCACATATG
  switch fluorescence ratio: 0.989

## CGCAAGTCAG
  switch fluorescence ratio: 1.59

## CTCGGGTCTG
  switch fluorescence ratio: 0.985

## TGTAGTTCCG
  switch fluorescence ratio: 0.931

## GAATTCTAGT
  switch fluorescence ratio: 1.01

## GCGGGATAGC
  switch fluorescence ratio: 1.05

## AATCGCGATG
  switch fluorescence ratio: 1

## CCATAGTGAT
  switch fluorescence ratio: 1.78

## CAGTGATATA
  switch fluorescence ratio: 1.01

## CCTGTCATGG
  switch fluorescence ratio: 1.07

## CGGTATAGTG
  switch fluorescence ratio: 0.996

## CCGATAATTG
  switch fluorescence ratio: 1.01

## CAATTCAAAC
  switch fluorescence ratio: 1.01

## CGTCAAGTTT
  switch fluorescence ratio: 0.994

## ACAGGCAAAA
  switch fluorescence ratio: 0.984

## TTTTTACT
  switch fluorescence ratio: 0.959

## GGCTGCAGTA
  switch fluorescence ratio: 1.01

## CGAGCTATG
  switch fluorescence ratio: 1.12

## TTATATAACA
  switch fluorescence ratio: 1.01

## CATCCTTTCA
  switch fluorescence ratio: 1.03

## CTTGTGATGA
  switch fluorescence ratio: 0.986

## GCCTTAGGGC
  switch fluorescence ratio: 0.981

## TTTGGTGAGC
  switch fluorescence ratio: 0.972

## TTCATTAGGT
  switch fluorescence ratio: 1.01

## CCAGCCTGAC
  switch fluorescence ratio: 2

## TAGCAGTTTT
  switch fluorescence ratio: 1

## GAAGCACCAT
  switch fluorescence ratio: 1.1

## AGCGCTGAC
  switch fluorescence ratio: 1.14

## GGAGCAAAAG
  switch fluorescence ratio: 1.49

## CTCGAGGTTA
  switch fluorescence ratio: 0.971

## GGCTACCCGT
  switch fluorescence ratio: 1.02

## TTTGCGGACG
  switch fluorescence ratio: 0.987

## GCGGGATTG
  switch fluorescence ratio: 1.02

## TGCACCGGGA
  switch fluorescence ratio: 1

## ATTCATGGAC
  switch fluorescence ratio: 0.986

## TAGTCACATA
  switch fluorescence ratio: 1.02

## CTCGGCCAGA
  switch fluorescence ratio: 1.1

## TACGCCCTTC
  switch fluorescence ratio: 1.15

## TTATATCACA
  switch fluorescence ratio: 1.06

## CTCCAAGCGG
  switch fluorescence ratio: 1.54

## TCTACGGCTT
  switch fluorescence ratio: 1.08

## GATATAGCTG
  switch fluorescence ratio: 1.01

## TTCCGCAGCG
  switch fluorescence ratio: 2.79

## CCGTTAGGAT
  switch fluorescence ratio: 0.955

## GATATGTCGT
  switch fluorescence ratio: 0.976

## ACGTTAAGCC
  switch fluorescence ratio: 1.11

## ATTGGCCGGA
  switch fluorescence ratio: 1.02

## GGGCGTGTA
  switch fluorescence ratio: 0.976

## TACTAATTGA
  switch fluorescence ratio: 1.06

## GGCGCCTAAT
  switch fluorescence ratio: 1.01

## ATCATGCCGT
  switch fluorescence ratio: 1.03

## AAGGGTACGG
  switch fluorescence ratio: 1.04
